Source: the supplement of paper PMC7125110
± gives the standard error. Variants at the background level are over-represented here.

B1: glmS ribozyme (parent)
chain: AUAAAAGCGCCAGAACUACAGAAAUGUAGUUGACGAGGAGGAGGUUUAUCGAAUUUUCGGCGGAUGCCUCCAAA

Assays:
Settings in all cases: with glucosamine-6-phosphate
glucosamine-6-phosphate [1] = variants of: B1; experiment: self-cleavage kobs at 40 uM GlcN6P; higher = faster cleavage; RNA array
Method in brief: (§1)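 Tracking of barcoded ribozyme variants used a hybridised Cy3 probe at 37 °C, after in situ transcription by E. coli RNA polymerase on sequenced MiSeq chips. The flowed solution held 40 μM to 10 mM glucosamine-6-phosphate in HEPES/KCl/Mg(OAc)2 buffer, and imaging ran over ~14 h. kobs was taken from exponential decay fits of normalised per-tile medians, and kcat and KM from weighted Michaelis–Menten fits.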

glucosamine-6-phosphate [2] = variants of: B1; experiment: self-cleavage kobs at 640 uM GlcN6P; higher = faster cleavage; RNA array
Method in brief: as §1

glucosamine-6-phosphate [3] = variants of: B1; experiment: self-cleavage kobs at 2500 uM GlcN6P; higher = faster cleavage; RNA array
Method in brief: as §1

glucosamine-6-phosphate [4] = variants of: B1; experiment: self-cleavage kobs at 10000 uM GlcN6P; higher = faster cleavage; RNA array
Method in brief: as §1

glucosamine-6-phosphate [5] = variants of: B1; experiment: self-cleavage kobs at 160 uM GlcN6P; higher = faster cleavage; RNA array
Method in brief: as §1

Row | Variant | self-cleavage kobs at 40 uM GlcN6P (glucosamine-6-phosphate [1]) | self-cleavage kobs at 640 uM GlcN6P (glucosamine-6-phosphate [2]) | self-cleavage kobs at 2500 uM GlcN6P (glucosamine-6-phosphate [3]) | self-cleavage kobs at 10000 uM GlcN6P (glucosamine-6-phosphate [4]) | self-cleavage kobs at 160 uM GlcN6P (glucosamine-6-phosphate [5])
1 | AUAAAAGCGCCAGAACUACAGAAAUGUAGCUGACGAGGAGGAGGUUUACCGAAUUUUCGGCCGAUGCCUCCAAA [U30C U49C G62C] | < 1e-05 s⁻¹ | < 1e-05 s⁻¹ | < 1e-05 s⁻¹ |  | 
2 | AUAAAAGCGCCAGAACUACAGAAAUGUAGCUGACGAGGAGGAGGAUUAUCGUAUUUUCGGCGGAUGCCUCCAAA [U30C U45A A52U] | < 1e-05 s⁻¹ |  |  |  | 
3 | AUAAAAGCGCCAGAACUACAGAAAUGUAGCUGACGAGGAGGAGGUUUAUCCAAUUUUCGGCGGUUGCCUCCAAA [U30C G51C A64U] | < 1e-05 s⁻¹ |  |  | < 1e-05 s⁻¹ | 
4 | AUAAAAGCGCCAGAACUACAGAAAUGUAGCUGACGAGGAGGAGGUUUAUCGAAUUUUCGCCGGAUGCCUCCAAA [U30C G60C] | < 1e-05 s⁻¹ |  |  | < 1e-05 s⁻¹ | 
5 | AUAAAAGCGCCAGAACUACAGAAAUGUAGCUGACGAGGAGGAGGUUUAUCGAAUUUUCGGCGGAUGCGUCCAAA [U30C C68G] | 3.15e-05 ± 1.2e-05 s⁻¹ | 8.37e-05 ± 1.7e-05 s⁻¹ |  |  | 5.26e-05 ± 1.7e-05 s⁻¹
6 | AUAAAAGCGCCAGAACUACAGAAAUGUAGCCGACGAGGAGGAGGUUUCUCGAAUUUUCGGAGGAUGCCUCCAAA [U30C U31C A48C C61A] | < 1e-05 s⁻¹ |  | < 1e-05 s⁻¹ |  | 
7 | AUAAAAGCGCCAGAACUACAGAAAUGUAGCUGACGAGGAGGAGGUUUAUCGAAGUUUCGGCGGAUGGCUCCAAA [U30C U54G C67G] | < 1e-05 s⁻¹ |  |  |  | 
8 | AUAAAAGCGCCAGAACUACAGAAAUGUAGCUGACGAGGAAGAGGUUUAUCGGAUCUUCGGGGGAUGCCUCCAAA [U30C G40A A52G U55C C61G] | < 1e-05 s⁻¹ |  |  | < 1e-05 s⁻¹ | 
9 | AUAAAAGCGCCAGAACUACAGAAAUGUAGGUGACGAGGAGGCGGUUUAUCGAAUUUUCGGCGGAUGCCUCCAAA [U30G A42C] | < 1e-05 s⁻¹ | < 1e-05 s⁻¹ | < 1e-05 s⁻¹ | < 1e-05 s⁻¹ | 
10 | AUAAAAGCGCCAGAACUACAGAAAUGUAGCUGACGAGGAGGAGGUUUAUCGAAUUUUCGGCGAAUGCCUCCAAA [U30C G63A] | < 1e-05 s⁻¹ | < 1e-05 s⁻¹ | < 1e-05 s⁻¹ |  | 
11 | AUAAAAGCGCCAGAACUACAGAAAUGUAGCUGACGAGGAUGAGGUUUAUCGAAUUUUCGGCGGAUGGCUCCAAA [U30C G40U C67G] | < 1e-05 s⁻¹ |  |  | < 1e-05 s⁻¹ | 
12 | AUAAAAGCGCCAGAACUACAGAAAUGUAGCUGACGAGGAGUAGGUUUAUCGAAUUUUCGGCGGAUGCCUCCAAA [U30C G41U] | < 1e-05 s⁻¹ |  |  |  | < 1e-05 s⁻¹
13 | AUAAAAGCGCCAGAACUACAGAAAUGUAGCUGACGAGGAGGAGGUUUAUCUAAUUUUCGGCGGAUGACUCCAAA [U30C G51U C67A] | < 1e-05 s⁻¹ |  |  | < 1e-05 s⁻¹ | 
14 | AUAAAAGCGCCAGAACUACAGAAAUGUAGCUGACGAGGAGGAGGUUUAUCGAAUUUCCGGCGGAUGCCUCCAAA [U30C U57C] | < 1e-05 s⁻¹ | < 1e-05 s⁻¹ |  |  | 
15 | AUAAAAGCGCCAGAACUACAGAAAUGUAGGUGACGAGGUGGAGGUUUAUCGAAUUUUCGGCGGAUGCCUCCAAA [U30G A39U] | 0.000127 ± 2.3e-05 s⁻¹ | 0.000857 ± 0.00016 s⁻¹ | 0.00224 ± 0.00096 s⁻¹ | 0.00645 ± 0.00095 s⁻¹ | 0.000455 ± 8.4e-05 s⁻¹
16 | AUAAAAGCGCCAGAACUACAGAAAUGUAGCUGACGAGGAGGAGGUUUAGCGAAUUUUCGGCGGAUGCCUCCAAA [U30C U49G] | < 1e-05 s⁻¹ | < 1e-05 s⁻¹ |  | < 1e-05 s⁻¹ | < 1e-05 s⁻¹
